We go through 45 compounds from publication PMC4336329 (PLoS ONE, 2015).

About 14,000 (4.5%) of roughly 310,000 compounds showed an effect of 50% or more. The effect is printed as a negative number. Some of the results follow.
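Also: peak tail current of the secondary pulse compared with the same well before compound.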

The target of this experiment is human ether-à-go-go-related gene (hERG) potassium channel (human, UniProt Q12809). Put plainly: primary screen, population patch clamp on CHO cells stably expressing hERG.
Sequence of human ether-à-go-go-related gene (hERG) potassium channel (Q12809 whole entry, looked up): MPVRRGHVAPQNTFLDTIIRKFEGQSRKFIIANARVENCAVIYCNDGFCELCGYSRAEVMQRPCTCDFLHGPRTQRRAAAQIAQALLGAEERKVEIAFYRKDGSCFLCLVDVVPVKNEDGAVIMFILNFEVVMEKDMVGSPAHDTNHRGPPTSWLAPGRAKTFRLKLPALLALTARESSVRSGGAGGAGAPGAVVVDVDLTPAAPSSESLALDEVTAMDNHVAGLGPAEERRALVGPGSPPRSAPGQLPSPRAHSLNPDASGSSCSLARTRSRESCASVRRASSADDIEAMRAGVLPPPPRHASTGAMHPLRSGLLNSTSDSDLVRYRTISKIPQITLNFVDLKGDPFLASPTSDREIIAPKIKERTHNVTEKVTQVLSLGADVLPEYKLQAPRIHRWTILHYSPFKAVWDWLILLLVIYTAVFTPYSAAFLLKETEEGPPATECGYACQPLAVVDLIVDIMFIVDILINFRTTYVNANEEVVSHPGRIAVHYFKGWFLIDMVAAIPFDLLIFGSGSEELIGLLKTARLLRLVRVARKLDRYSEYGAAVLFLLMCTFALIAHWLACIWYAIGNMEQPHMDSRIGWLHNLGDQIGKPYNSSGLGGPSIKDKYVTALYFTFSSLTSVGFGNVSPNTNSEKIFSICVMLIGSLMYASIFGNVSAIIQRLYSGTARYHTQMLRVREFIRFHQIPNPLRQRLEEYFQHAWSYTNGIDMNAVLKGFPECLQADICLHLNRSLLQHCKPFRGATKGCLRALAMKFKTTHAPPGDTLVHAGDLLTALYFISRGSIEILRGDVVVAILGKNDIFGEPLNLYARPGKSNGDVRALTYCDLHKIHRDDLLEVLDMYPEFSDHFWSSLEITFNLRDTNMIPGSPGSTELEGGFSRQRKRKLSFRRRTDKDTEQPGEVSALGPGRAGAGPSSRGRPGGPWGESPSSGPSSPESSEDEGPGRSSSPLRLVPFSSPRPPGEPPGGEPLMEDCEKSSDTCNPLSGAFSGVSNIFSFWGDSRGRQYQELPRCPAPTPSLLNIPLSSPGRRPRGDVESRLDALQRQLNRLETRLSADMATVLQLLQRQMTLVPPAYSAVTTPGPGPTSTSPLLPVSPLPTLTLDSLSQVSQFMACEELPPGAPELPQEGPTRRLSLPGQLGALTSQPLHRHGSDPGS
As to `COc1ccc(NC(=S)NCc2ccco2)cc1`, the “hERG current change (%, negative = inhibition) at 10uM” value came to 9.23%. As for `O=C(NC(NC(=O)c1ccccc1)c1ccccc1)c1ccccc1`, the “hERG current change (%, negative = inhibition) at 10uM” value is given as -3.65%. Turning to `O=c1[nH]c(CSc2nc3ccccc3o2)nc2c1cnn2-c1ccccc1`, the “hERG current change (%, negative = inhibition) at 10uM” value is -9.37%. Consider `Cc1ccc(CNC(=O)C2CCCN2C(=O)Nc2ccccc2)cc1` (stereo not drawn), for which the “hERG current change (%, negative = inhibition) at 10uM” value was -8.61%. For the compound `CSc1ncccc1C(=O)Nc1ccc(S(=O)(=O)N2CCCC2)cc1`, the “hERG current change (%, negative = inhibition) at 10uM” value is -16.6%. Consider `Cc1cccc(NC(=O)Cn2c(C)c(C#N)c3ccccc32)c1C`, for which the “hERG current change (%, negative = inhibition) at 10uM” value turned out to be 5.11%. The same measure for `CCOc1ccc2c(c1)nc(NCCCO)n2Cc1ccccc1`: -20.3%.

In the case of `CC1=C(C(=O)OCc2ccccc2)C(c2ccc([N+](=O)[O-])cc2)NC(=O)N1CCCC(=O)O` (stereo not drawn), the “hERG current change (%, negative = inhibition) at 10uM” value stood at 13%.

As for `Cc1c(Cl)ccc2c(C(=O)NC(C)c3ccncc3)cc(-c3ccncc3)nc12` (stereo not drawn), the “hERG current change (%, negative = inhibition) at 10uM” value is reported as -59.3%. Regarding `CCC(C)NC(=O)CN(c1ccc(OC)cc1)S(=O)(=O)c1ccccc1` (stereo not drawn), the “hERG current change (%, negative = inhibition) at 10uM” value turned out to be 8.58%.

With `O=C1CCCCCCCN1Cc1ccccc1`, the “hERG current change (%, negative = inhibition) at 10uM” value was 10.6%. Take `Cc1nn(C)c(C)c1S(=O)(=O)N1CCCC(C(=O)NCC2COc3ccccc3O2)C1` (stereo not drawn): the “hERG current change (%, negative = inhibition) at 10uM” value is on record as -14.9%.

In the case of `COc1cc2c(c(OC)c1OC)-c1c(cc3c(c1OC)OCO3)C[C@H](C)[C@@](C)(O)C2`, the “hERG current change (%, negative = inhibition) at 10uM” value is 28.4%. As to `C=CCn1cc(C(=O)NCC2CCCO2)c(=O)c2cc(S(=O)(=O)N3CCCCCC3)ccc21` (stereo not drawn), the “hERG current change (%, negative = inhibition) at 10uM” value was -48.1%.

For the compound `Cc1cc(C)nc(NS(=O)(=O)c2ccc(CC(C)C)cc2)c1`, the “hERG current change (%, negative = inhibition) at 10uM” value was -25.3%. `Cc1nn(S(=O)(=O)c2cccc([N+](=O)[O-])c2)c(C)c1Br`: the “hERG current change (%, negative = inhibition) at 10uM” value is on record as 10.7%. For `CCOC(=O)C1(CCOc2ccccc2)CCN(Cc2ccncc2)CC1`, the “hERG current change (%, negative = inhibition) at 10uM” value is -52%. Regarding `Cc1ccc(-c2csc3ncnc(N4CCc5ccccc5C4)c23)cc1`, the “hERG current change (%, negative = inhibition) at 10uM” value worked out at 10.8%. Turning to `Cc1csc(NC(=O)CSc2nnc(-c3ccncc3)o2)n1`, the “hERG current change (%, negative = inhibition) at 10uM” value is on record as -1.96%. Next, `CC(C)NCc1nnc(-c2ccccc2Cl)o1`: 21%. `CCCNC(=O)COc1coc(CN2CCN(c3ccccc3OC)CC2)cc1=O`: the “hERG current change (%, negative = inhibition) at 10uM” value is reported as -14.8%. As to `CCOc1ccc2c(C)c(C(=O)O)oc2c1OCC`, the “hERG current change (%, negative = inhibition) at 10uM” value is 16.5%.

Turning to `COc1ccc(NS(=O)(=O)c2cccc(C(=O)N(C)Cc3ccc(SC)cc3)c2)cc1`, the “hERG current change (%, negative = inhibition) at 10uM” value is -9.93%. With `O=c1c(Cc2c(F)cccc2Cl)c(O)ccn1CCCN1CCOCC1`, the “hERG current change (%, negative = inhibition) at 10uM” value was -15.6%.

Take `O=C(O)C(NS(=O)(=O)c1ccccc1)C(O)c1ccccc1` (stereo not drawn): the “hERG current change (%, negative = inhibition) at 10uM” value was 17%.

On to `COCCCN=Cc1c(O)[nH]c(=S)[nH]c1=O`, for which the “hERG current change (%, negative = inhibition) at 10uM” value is given as 0.728%.

`OC[C@@H](O)[C@@H](O)[C@H](O)[C@H](O)CO`: the “hERG current change (%, negative = inhibition) at 10uM” value amounted to 9.43%. As for `C=CCc1cccc2cc(C(=O)OCC(=O)c3ccccc3)c(=O)oc12`, the “hERG current change (%, negative = inhibition) at 10uM” value is -12.6%. For the compound `Cc1ccc2ccccc2c1NC(=O)Cn1nnc(-c2cccnc2)n1`, the “hERG current change (%, negative = inhibition) at 10uM” value is reported as -2.76%.

In the case of `Cc1nc(C(=O)O)nn1-c1cc(Cl)ccc1Cl`, the “hERG current change (%, negative = inhibition) at 10uM” value is given as 16.1%. For `Cn1cc([N+](=O)[O-])c(C(=O)N/N=C/c2ccc3c(c2)OCO3)n1`, the “hERG current change (%, negative = inhibition) at 10uM” value is listed as -2.68%. For the compound `Cc1ccc(C(=O)Nc2nc(C)c(C(=O)N(C)C)s2)o1`, the “hERG current change (%, negative = inhibition) at 10uM” value was 9.62%. `Cc1cc(Oc2ccc(N)cn2)ccc1Cl`: the “hERG current change (%, negative = inhibition) at 10uM” value was 8.53%. As for `CCC(c1nnnn1Cc1ccccc1)N1CCN(c2ccccc2)CC1` (stereo not drawn), the “hERG current change (%, negative = inhibition) at 10uM” value is given as -8.7%. In the case of `Cn1cc([N+](=O)[O-])c(C(=O)NCc2ccco2)n1`, the “hERG current change (%, negative = inhibition) at 10uM” value turned out to be 50.5%. With `COC(=O)c1[nH]c2ccc(C)cc2c1NC(=O)Nc1ccc(OC)cc1`, the “hERG current change (%, negative = inhibition) at 10uM” value is given as -15%.

For the compound `O=C(CCCC(=O)OCC(F)(F)C(F)F)Nc1nccs1`, the “hERG current change (%, negative = inhibition) at 10uM” value is on record as 8.18%. Take `CC1CN(C(=O)COC(=O)c2cc(Cl)ccc2[N+](=O)[O-])CC(C)O1` (stereo not drawn): the “hERG current change (%, negative = inhibition) at 10uM” value came out at 4.34%. As for `CC(/C=C/C=C/c1ccccc1)=N/NC(=O)CNc1ccc(C)cc1`, the “hERG current change (%, negative = inhibition) at 10uM” value was determined as 10%. Turning to `CSc1ccccc1NC(=O)C1=COCCO1`, the “hERG current change (%, negative = inhibition) at 10uM” value came to 13.2%.

With `Cc1cc(/C=C(/C#N)C(=O)O)c(C)n1CCC(C)C`, the “hERG current change (%, negative = inhibition) at 10uM” value came to 4.68%. The same measure for `CCN(C(=O)CSc1nncn1-c1ccccc1)C1CCS(=O)(=O)C1` (stereo not drawn): 24.6%. Regarding `CCN(CC)S(=O)(=O)N1CCC(C(=O)NC2CCCC2)CC1`, the “hERG current change (%, negative = inhibition) at 10uM” value was -6.03%. For `CCCn1c(N)c(C(=O)CSc2n[nH]c(-c3ccc(C)cc3)n2)c(=O)[nH]c1=O`, the “hERG current change (%, negative = inhibition) at 10uM” value stood at 22.2%.

In the case of `COc1nccnc1NS(=O)(=O)c1ccc(NC(=S)NC(=O)/C=C/c2ccc(F)cc2)cc1`, the “hERG current change (%, negative = inhibition) at 10uM” value is given as -16.7%.
